Laboratory results: article PMC11167000
Residue numbers refer to the chain shown, from its start. Numbers in names are those of the source. These are yes or no findings as the source states them, for the method shown. For part of these data: Binding seen in cells or lysates may run through a third protein. Some binding calls cover weakened binding; strength is not graded here. For part of these data: Where a sequence is shown, tags or fusion partners need not be part of it. One block for each binder: values may come before it.

Tests used:
[1] = target: T1, Decapentaplegic (Dpp)–Screw (Scw) heterodimer, Dpp:HA–Scw:Flag (Drosophila) (UniProt P07713+P54631); test: co-IP; as a8, but Dpp:HA–Scw:Flag medium mixed with both Sog medium and Tsg (wild-type or I40E) medium
T1 sequence 1: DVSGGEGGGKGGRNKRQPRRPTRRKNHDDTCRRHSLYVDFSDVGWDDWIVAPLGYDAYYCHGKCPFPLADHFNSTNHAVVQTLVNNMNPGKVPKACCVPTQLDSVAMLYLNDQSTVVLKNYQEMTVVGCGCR
T1 sequence 2: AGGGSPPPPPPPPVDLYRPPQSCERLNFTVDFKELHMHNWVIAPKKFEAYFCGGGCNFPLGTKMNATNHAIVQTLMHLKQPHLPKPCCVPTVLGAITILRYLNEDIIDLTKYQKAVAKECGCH

[2] = target: T1, Decapentaplegic (Dpp)–Screw (Scw) heterodimer, Dpp:HA–Scw:Flag (Drosophila); test: co-IP; conditioned media of transfected S2R+ cells mixed (Dpp:HA–Scw:Flag medium with Sog or Tsg medium alone), 3 hours at room temperature, anti-Flag M2 matrix at 4 °C overnight, washed in 20 mM Tris pH 8, 150 mM NaCl, Western blot
[3] = target: T2, human CHRDL2 (A25–T429) (human) (UniProt Q6WN34); test: SPR; equilibrium binding, Biacore T200, 25 °C; BMP2, BMP7, GDF5 or CHRDL2 amine-coupled to a CM5 chip, TWSG1 proteins as analytes; 0.15 M NaCl, 20 mM HEPES pH 7.5, 2 mM CaCl2, 0.005% Tween 20; 1:1 binding isotherm; both purified
T2 sequence (chain, Asn-linked glycan (predicted at Asn 114)): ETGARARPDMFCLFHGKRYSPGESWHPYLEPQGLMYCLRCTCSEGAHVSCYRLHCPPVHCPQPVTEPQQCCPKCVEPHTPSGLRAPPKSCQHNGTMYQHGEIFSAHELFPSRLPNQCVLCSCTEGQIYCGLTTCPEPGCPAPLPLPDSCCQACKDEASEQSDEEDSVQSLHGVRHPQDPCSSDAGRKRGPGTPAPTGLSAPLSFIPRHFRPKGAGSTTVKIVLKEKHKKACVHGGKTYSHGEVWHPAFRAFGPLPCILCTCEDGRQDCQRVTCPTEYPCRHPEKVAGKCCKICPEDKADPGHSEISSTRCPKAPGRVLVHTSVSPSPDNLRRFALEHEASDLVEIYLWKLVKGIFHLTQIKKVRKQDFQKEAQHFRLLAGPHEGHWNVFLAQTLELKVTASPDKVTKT

Scw:Flag (Drosophila) = target: T3, Scw:Flag (Drosophila) (UniProt P54631); test: co-IP; conditioned media of transfected S2R+ cells mixed (Dpp:HA–Scw:Flag medium with Sog or Tsg medium alone), 3 hours at room temperature, anti-Flag M2 matrix at 4 °C overnight, washed in 20 mM Tris pH 8, 150 mM NaCl, Western blot
T3 sequence: T1 sequence 2

binding [1]: binds | binding [2]: binds weakly
B1: Drosophila Twisted gastrulation, Tsg:His (protein, UniProt P54356 24-249)
chain: DGCNEVVCGSVVSKCLITQSCQCKLNDCHCCKDCLNCLGELYIECCGCLDMCPKHKDVLPSLTPRSEIGDIEGVPELFDTLTAEDDEGWSTIRFSMRAGFKQRVQGGASGDAGNGNGNGNAGSAGVTLCTVIYVNSCIRANKCRQQCESMGASSYRWFHDGCCECVGENCLNYGINESRCRGCPEDQDQLLTADTVPAEAEQDLERFFGNEEIEDEWGYGEEDEFS

binding [1]: no binding | binding [2]: no binding
B2: Drosophila Twisted gastrulation Ile40Glu, Tsg^I40E:His (protein, UniProt P54356 24-249)
chain: B1 chain with I17E

binding [3]: no binding
B3: human TWSG1 N-terminal domain (TWSG1 NTD, C26–S83) (domain or fragment, UniProt Q9GZX9 26-83)
chain: ETGCNKALCASDVSKCLIQELCQCRPGEGNCSCCKECMLCLGALWDECCDCVGMCNPRNYS

binding (Scw:Flag (Drosophila)): binds
B4: Dpp:HA (ligand, UniProt P07713 457-588)
chain: T1 sequence 1
